Measurements taken from PubChem BioAssay AID493208 (National Center for Advancing Translational Sciences (NCATS), 2011).
Hit rate of the full screen: of about 44,000 compounds, about 340 (0.77%) were called active. Roughly 5% stayed inconclusive and do not appear here. Calls follow the shape of the dose curve; as a rule, active = well fitted inhibition curve with a large enough effect; inconclusive = small, poorly fitted or top-dose-only effect; inactive = flat fitted curve, though single readings scatter. The list shows a part of the results.

Assay: Acumen qHTS Assay for Inhibitors of the mTORC1 Signaling Pathway in MEF (Tsc2-/-, p53-/-) Cells: Sytravon; also: nearly all actives have a fitted effect of over 50% in size;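 as to activity change, negative = inhibition: plate controls were DMSO for no effect and rapamycin for full effect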
Settings: phospho-rpS6 immunofluorescence/PI, 24 h; series mostly up to 38.3 µM; activity change, negative = inhibition: at the top concentration
Summary of the method: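 Compounds act on Tsc2-/-, p53-/- fibroblasts carrying an empty vector for 24 h before fixation and dual staining for phospho-S6 and DNA (propidium iodide). Values are percentages of cells above a rapamycin-defined pS6/PI threshold.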
Potency is read from the fitted curve at half-maximal effect.

Compound | activity change, negative = inhibition | Potency
COc1ccc(Cl)cc1NC(=O)NCCn1c(=O)oc2ccc(C)cc21 | inactive: -20.2% | 
COc1ccc(C)cc1NC(=O)N1CCC(CN2CCOCC2)CC1 | inactive: -3.75% | 
Cc1ccc(N(CC(=O)N2CCN(c3cccc(Cl)c3)CC2)S(=O)(=O)c2c(C)noc2C)cc1 | inactive: -8.29% | 
Cc1ccc2cc3cc(C(=O)N4CCN(c5ccc(Cl)cc5)CC4)oc3nc2c1 | inactive: -0.89% | 
Cc1ccccc1NC(=O)c1c(NC(=O)c2ccccc2)sc2c1CCC2 | inactive: 0.43% | 
COc1ccc(-c2cn3nc(N4CCC(C(=O)Nc5ccccc5OC)CC4)sc3n2)cc1 | inactive: -11% | 
CCN(CC)C(=O)c1sc2c(c1C)c(=O)n(-c1ccccc1)c(=O)n2Cc1c(C)cc(C)cc1C | inactive: -0.628% | 
CCOc1ccc(NC(=O)CC2C(=O)N(c3ccccc3)C(=O)N2CCc2cccs2)cc1 (centres undefined) | inactive: -0.291% | 
CC(C)C(NS(=O)(=O)c1ccc2c(c1)oc(=O)n2C)C(=O)N1CCN(c2cccc(Cl)c2)CC1 (centres undefined) | inactive: -2.75% | 
CCN(CC)C(=O)c1ccc2c(c1)N(Cc1c(F)cccc1Cl)C(=O)c1ccccc1S2 | inactive: -0.443% | 
Cc1ccn2c(Nc3c(C)cccc3C)c(-c3ccsc3)nc2c1 | inactive: -22.9% | 
COc1ccc(NC(=O)C(Cc2c[nH]c3ccccc23)NC(=O)OC(C)(C)C)cc1 (centres undefined) | inactive: -12.7% | 
COC(=O)Cn1c(=NC(=O)c2ccc3c(c2)OCCO3)sc2ccccc21 | inactive: -1.79% | 
COc1ccc(N2CC(NC(=O)c3cccs3)CC2=O)cc1 (centres undefined) | inactive: -0.916% | 
O=C(CSc1nc(=O)[nH]c2c1CCCC2)Nc1ccc(Cl)c(Cl)c1 | inactive: -5.52% | 
Cc1cc(N2CCN(C)CC2)nc2ccc(NC(=O)c3ccc(C(C)(C)C)cc3)cc12 |  | active: 5.85 µM
CCN(CC)S(=O)(=O)c1ccc(NC(=O)c2cc3ccc4cccnc4c3[nH]2)cc1 | inactive: -8.67% | 
Cc1ccc(-n2nc(C(=O)Nc3ccc(F)cc3Cl)c(=O)n(C)c2=O)cc1 | inactive: -0.347% | 
CN(Cc1ccccc1)c1nnc(NC(=O)Nc2cccc(Br)c2)s1 | inactive: -6.3% | 
Cc1ccc(C(=O)n2nc(C)c(S(=O)(=O)N3CCCCCC3)c2C)cc1C | inactive: -1.45% | 
CCc1nnc(NC(=O)CSc2nccn2Cc2ccc(C)cc2)s1 | inactive: 2.3% | 
COc1ccccc1NC(=O)CSc1nc(O)c(C/C=C/c2ccccc2)c(=O)[nH]1 | inactive: -6.46% | 
COc1ccc(Cn2c(=O)n(-c3ccc(F)c(Cl)c3)c(=O)c3c2c2cc(OC)ccc2n3C)cc1 | inactive: 1.87% | 
CCOC(=O)c1c(S(=O)(=O)N2CCC(C(=O)NCc3cccc(C)c3)CC2)c(C)n(C)c1C | inactive: -1.05% | 

Compound | activity change, negative = inhibition | Potency
CCOc1cccc2sc(N3CCN(C(=O)c4ccc5c(c4)CCCC5)CC3)nc12 | inactive: 2.63% | 
Cc1ccc(OCc2nc(-c3ccc(C(=O)NCCc4ccc(Cl)cc4)cc3)oc2C)cc1 | inactive: -0.345% | 
CCCCc1ccc(NC(=O)c2cc(-c3ccc(C)c(F)c3)on2)cc1 | inactive: 3.16% | 
Cn1c(=O)c2sccc2n2c(CCC(=O)N3CCN(c4ccc(F)cc4)CC3)nnc12 | inactive: -2.11% | 
Cc1ccccc1CN1C(=O)c2ccccc2Sc2ccc(C(=O)NC3CCCCC3)cc21 | inactive: 3.82% | 
COc1ccc(NC(=O)c2nn(C)c3c2CS(=O)(=O)c2ccccc2-3)cc1Cl | inactive: 1.2% | 
COc1ccc(C2=C(Nc3ccc(Br)c(C)c3)c3ccccc3C2=O)cc1 | inactive: -29.1% | 
CC(C)Nc1ccc(-c2nc(-c3ccncc3)no2)cc1[N+](=O)[O-] | inactive: 3.26% | 
CCOC(=O)c1c(C)[nH]c(C)c1S(=O)(=O)N1CCCC(C(=O)N2CCN(c3ccccc3F)CC2)C1 (centres undefined) | inactive: -0.65% | 
COc1ccc(N(CC(=O)NC(C)c2ccccc2)S(=O)(=O)c2c(C)nn(C)c2C)cc1 (centres undefined) | inactive: -0.557% | 
COc1ccc(N2CCN(Cc3nc4c(c(=O)[nH]c(=O)n4C)n3Cc3ccc(C)cc3)CC2)cc1 | inactive: 1.34% | 
CCc1nn(CC(=O)N2CCN(c3cccc(OC)c3)CC2)c(=O)c2cc3occc3n12 | inactive: 3.15% | 
CC1CN(C(=O)CCC(=O)NCc2cccc(Cl)c2)c2ccccc2S1 (centres undefined) | inactive: -0.798% | 
COc1ccccc1C(=O)N(Cc1nc(-c2cccc(C)c2)no1)C(C)C | inactive: -14.7% | 
COc1ccc(S(=O)(=O)c2cnc3cc(OC)c(OC)cc3c2N2CCCC(C)C2)cc1 (centres undefined) | inactive: -3.2% | 
O=C(O)c1ccc(Cn2cnc3cccnc32)cc1 | inactive: 0% | 
CC1CCN(CC2CCN(C(=O)NCc3ccc(F)cc3)CC2)CC1 | inactive: -0.821% | 
CCOc1ccc(C2C(C(=O)Nc3ccccc3)=C(C)Nc3nc(SCc4cccc(OC)c4)nn32)cc1 (centres undefined) | inactive: 0.688% | 
Cc1ccc(/C=C/c2onc(C)c2S(=O)(=O)N2CCC(C(=O)N3CCN(c4cccc(C)c4)C(C)C3)CC2)cc1 (centres undefined) | inactive: -4.16% | 
Cc1nn(C(C)C(=O)NC2CCC(C)CC2)c(=O)c2c1sc1ccccc12 (centres undefined) |  | active: 2.07 µM
CCc1ccc(OCc2nc(-c3ccc(-n4cccc4)cc3)no2)cc1 | inactive: -17% | 
CCc1nc(-c2cc(S(=O)(=O)N3CCN(c4ccc(OC)cc4)CC3)ccc2OC)no1 | inactive: 0.33% | 
O=S(=O)(NCCc1csc2nc(-c3ccccc3)nn12)c1cccs1 | inactive: -0.512% | 
CCOc1ccc(-c2cn3c(n2)sc2cc(C(=O)NCCc4ccc(OC)cc4OC)ccc23)cc1 | inactive: -1.04% | 

Compound | activity change, negative = inhibition | Potency
COc1cccc2c1cc1c(=O)n(CC(=O)N3CCN(c4cccc(C(F)(F)F)c4)CC3)nc(C)n12 | inactive: -1.45% | 
CCOc1ccccc1NC(=O)C(CC(C)C)NC(=O)C1CCC(C)CC1 (centres undefined) | inactive: 0.279% | 
CCCCN(CC)C(=O)CSc1nc2n[nH]c(C)c2c(=N)n1-c1cccc(C)c1 | inactive: -1.53% | 
COc1ccc(-n2nc3ccc(NC(=O)c4ccc(C#N)cc4F)cc3n2)cc1Cl | inactive: -1.7% | 
O=C(COc1ccccc1Cl)Nc1nnc(S(=O)(=O)N2CCCC2)s1 | inactive: 4.95% | 
Cc1ccc(NC(=O)CCc2c(C)nn(-c3ccc(N4CCOCC4)nn3)c2C)c(C)c1 | inactive: 0.753% | 
COc1ccc(Cn2c(CO)cnc2SCC(=O)Nc2ccc3c(c2)OCCO3)cc1 | inactive: -15.8% | 
COc1cccc(COC(=O)c2ccc(-c3nnn(Cc4cccc(OC)c4)n3)cc2)c1 | inactive: -1.1% | 
O=C(Nc1cccs1)Nc1ccc(F)cc1F | inactive: 1.3% | 
O=C(Nc1cccc(C(F)(F)F)c1)c1cc(-c2ccc(Cl)s2)nc2ccccc12 | inactive: 0.622% | 
O=C(O)Cn1c(-c2cccs2)cc2cc(Cl)ccc21 | inactive: 0.0701% | 
COc1cccc2sc(NC(=O)CS(=O)(=O)c3ccc(C)cc3)nc12 | inactive: -0.0458% | 
CCOc1ccc(NC2SC(=O)N(Cc3ccccc3)C2=O)cc1 (centres undefined) | inactive: -6.86% | 
COCCCNC(=O)Cn1nc(N2CCN(c3ccccc3)CC2)ccc1=O | inactive: 1.86% | 
Cn1c(-n2cccc2)c(-c2c(-c3ccc(F)cc3)[nH]c3c2c(=O)n(C)c(=O)n3C)c(=O)n(C)c1=O | inactive: -4.6% | 
CCCSc1oc(-c2ccco2)nc1S(=O)(=O)c1ccc(Br)cc1 | inactive: -28.1% | 
COCCn1ccc2c(OCC(=O)Nc3c(C)cc(C)cc3C)cccc2c1=O | inactive: -4.55% | 
Cc1ccc(S(=O)(=O)n2nc(-c3ccc(Cl)cc3)nc2NCc2ccccc2)cc1 | inactive: -1.46% | 
CC1CCc2c(sc3nnn(Cc4cccc(C(=O)OC(C)C)c4)c(=O)c23)C1 (centres undefined) | inactive: 1.81% | 
CC(=O)N1CCc2c(sc3c2c(=O)n(-c2ccc(F)cc2)c(=O)n3Cc2ccc(C#N)cc2)C1 | inactive: -4.7% | 
CCn1c(C(=O)NCc2ccccc2OC)cc2sccc21 | inactive: -1.76% | 
CCOc1ccccc1CNC(=O)C1CCN(S(=O)(=O)c2c(C)noc2/C=C/c2ccccc2F)CC1 | inactive: 3.11% | 
CC1=C(c2ccc(C(C)C)cc2)S(=O)(=O)N=C1N1CCC(C(=O)NCc2ccccc2)CC1 | inactive: 3.16% | 
COc1ccc(-n2ccnc(NCc3cccs3)c2=O)cc1OC | inactive: -1.18% | 

Compound | activity change, negative = inhibition | Potency
O=C(NCc1ccccc1Cl)c1ccc(NC(=O)N2CCCCc3ccccc32)cc1 | inactive: 1.13% | 
Cc1ccc(S(=O)(=O)c2c(Nc3cccc(Cl)c3)sc(C(=O)c3ccc4c(c3)OCO4)c2N)cc1 | inactive: -7.6% | 
CCOc1ccc(NC(=O)CSC2=Nc3ccccc3C3=NC(CC(=O)NCc4ccc5c(c4)OCO5)C(=O)N23)cc1 (centres undefined) | inactive: 0.196% | 
O=C(OCc1cc(=O)n2c3c(sc2n1)CCCC3)c1cccc(NC(=O)c2ccccc2F)c1 | inactive: 12.4% | 
Cc1ccc(C(=O)c2oc3ccccc3c2NC(=O)Cc2coc3c(C)c(C)ccc23)cc1 | inactive: 2.88% | 
Cc1cccc(NC(=O)CN(C)S(=O)(=O)c2ccc3c(c2)c(=O)n(C)c(=O)n3C)c1 | inactive: -7.2% | 
O=C(NCCS(=O)(=O)N1CCN(c2ccccc2)CC1)C1CC(=O)N(c2ccccc2)C1 (centres undefined) | inactive: 2.21% | 
COc1ccccc1C(=O)Nc1ccc(-c2nc3ccccc3s2)c(C)c1 | inactive: 0.475% | 
Cc1cc(Br)ccc1NC(=O)C1(S(=O)(=O)c2ccc(Cl)cc2)CC1 | inactive: -22.4% | 
Cc1ccc(-c2cc(C(=O)N(Cc3ccccc3)Cc3ccco3)no2)cc1F | inactive: 1.44% | 
CCOc1ccc(CCNc2nc3c(-c4ccc(C)cc4)nnn3c3ccccc23)cc1OCC | inactive: 7.15% | 
Cc1ccc(-c2ccc(=O)n(CC(=O)Nc3ccc(F)c(Cl)c3)n2)cc1C | inactive: -0.544% | 
COc1cccc(NC(=O)CSC2=Nc3ccccc3C3=NC(CCC(=O)NCc4ccco4)C(=O)N23)c1 (centres undefined) | inactive: -3.69% | 
COc1ccc(-c2nc(CNS(=O)(=O)c3ccc(C)cc3)cs2)cc1 | inactive: -7.18% | 
CCOc1ccccc1C(=O)Nc1ccc(S(=O)(=O)N2CCCCC2c2cccnc2)cc1 (centres undefined) | inactive: -19.4% | 
COc1ccccc1C(=O)Nc1nnc(S(=O)(=O)N2CCCCCC2)s1 | inactive: -27.6% | 
COc1ccc(C(=O)N2CCc3cc(OC)c(OC)cc3C2COc2ccccc2OC)cc1 (centres undefined) | inactive: -19.2% | 
COC(=O)c1c(C)sc(-c2c(-c3cccc(OC)c3)[nH]c3c2c(=O)[nH]c(=O)n3C)c1O | inactive: -6.62% | 
CC(=O)Nc1ccc(S(=O)(=O)NC2(C(F)(F)F)NC(=O)N(c3ccc(Cl)cc3)C2=O)cc1 (centres undefined) | inactive: -0.694% | 
COc1ccc(C)c2sc(N(Cc3cccnc3)C(=O)CCc3ccccc3)nc12 | inactive: -7.85% | 
CCCn1c(=O)c2sccc2n2c(CCCC(=O)Nc3ccc(C)c(F)c3)nnc12 | inactive: 2.91% | 
Cc1ccc(C(=O)COC(=O)c2cc(-c3ccc(Cl)cc3)nc3ccccc23)cc1 | inactive: -10.6% | 
